± gives the uncertainty stated by the source. Shown are siRNA guide strands that differ only in the seed, positions 2 to 7.
Tests used:
[1] = system: H460; experiment: cell viability relative to lipid-only control; higher = less toxic; conditions: concentration: 10 nM; 96 h; Homo sapiens
[2] = system: HeyA8; experiment: as above; conditions: concentration: 10 nM; 96 h; Homo sapiens
[3] = system: M565; experiment: as above; conditions: concentration: 10 nM; 96 h; Mus musculus
[4] = system: 3LL; experiment: cell viability relative to siNT1 control; HeyA8 human ovarian and H460 human lung cancer; M565 mouse liver and 3LL mouse lung cancer; siNT1 is a non-toxic control siRNA; higher = less toxic; conditions: concentration: 10 nM; 96 h; Mus musculus;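 also: Luminescence-based viability of cells reverse transfected in 384-well plates with lipid-complexed siRNAs built on a non-toxic 19mer backbone whose passenger strand carries 2′-O-methyl groups at positions 1 and 2, triplicates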
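For cell viability relative to lipid-only control in this document: reverse lipid transfection in 384-well plates, in triplicate, of duplexes on a non-toxic 19mer backbone with passenger strand 2′-O-methylated at positions 1 and 2, luminescence viability read-out.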

| Sequence | cell viability [1] | cell viability [2] | cell viability [3] | cell viability [4] |
| --- | --- | --- | --- | --- |
| UUACUGUACAUGUAAACCAAA | 61.8 ± 4.9% | 94.9 ± 5.6% | 39.7 ± 11% | 59.6 ± 7.5% |
| UCCACCGACAUGUAAACCAAA | 54.6 ± 7.2% | 70.1 ± 8.3% | 66.8 ± 15% | 110 ± 18% |
| UCUAAUCACAUGUAAACCAAA | 53.9 ± 7.6% | 80.9 ± 8.3% | 61.7 ± 15% | 93.5 ± 14% |
| UGUAUGGACAUGUAAACCAAA | 57.9 ± 7% | 55.2 ± 6.6% | 12.4 ± 2.5% | 33.4 ± 5% |
| UUACGAUACAUGUAAACCAAA | 79.5 ± 12% | 75.9 ± 8.4% | 110 ± 6.2% | 98.1 ± 7.4% |
| UACGAUGACAUGUAAACCAAA | 71 ± 14% | 75.7 ± 6.8% | 70.3 ± 11% | 90 ± 16% |
| UUGUAUCACAUGUAAACCAAA | 31.5 ± 1.4% | 8.57 ± 0.39% | 58.6 ± 6.7% | 35.2 ± 1% |
| UUAGGCCACAUGUAAACCAAA | 46.2 ± 3.9% | 28.2 ± 6% | 6.43 ± 1.3% | 12.3 ± 9.3% |
| UCGGGGAACAUGUAAACCAAA | 58.8 ± 4.4% | 44.8 ± 7.2% | 74.7 ± 4% | 90.6 ± 12% |
| UUAUUUUACAUGUAAACCAAA | 64.4 ± 9.9% | 59.7 ± 2.6% | 74.2 ± 7.5% | 56.7 ± 3.2% |
| UAUCUCCACAUGUAAACCAAA | 59.7 ± 3.8% | 44.5 ± 8.3% | 48.5 ± 11% | 31.4 ± 1.5% |
| UUCGUUUACAUGUAAACCAAA | 78.2 ± 23% | 93.4 ± 9.8% | 101 ± 3.9% | 86.9 ± 14% |
| UAUGAUCACAUGUAAACCAAA | 52 ± 4.2% | 61.3 ± 1.1% | 35.9 ± 8.4% | 77.3 ± 10% |
| UGGGGUUACAUGUAAACCAAA | 31.2 ± 2.4% | 7.86 ± 0.65% | 22.7 ± 4.1% | 41.6 ± 2.3% |
| UAAGGAGACAUGUAAACCAAA | 64.5 ± 4.3% | 89.8 ± 4.3% | 58.3 ± 1.5% | 84.2 ± 6.8% |
| UUCGGAUACAUGUAAACCAAA | 62 ± 10% | 64.1 ± 6.7% | 68.1 ± 12% | 44.6 ± 10% |
| UGUGUGAACAUGUAAACCAAA | 54.2 ± 4.1% | 44.7 ± 5.6% | 52.9 ± 9.8% | 72.7 ± 4% |
| UCCUACAACAUGUAAACCAAA | 73.9 ± 12% | 89.4 ± 6.8% | 75.1 ± 6.3% | 86.3 ± 18% |
| UGGGCAUACAUGUAAACCAAA | 23.1 ± 5.1% | 2.09 ± 0.068% | 30.5 ± 4.8% | 52.3 ± 8.9% |
| UUGGUGUACAUGUAAACCAAA | 69.5 ± 7.4% | 77.1 ± 4.7% | 70.1 ± 23% | 81.3 ± 2.6% |

| Sequence | cell viability [1] | cell viability [2] | cell viability [3] | cell viability [4] |
| --- | --- | --- | --- | --- |
| UAAUCAGACAUGUAAACCAAA | 78.8 ± 1.7% | 64.1 ± 1.6% | 82 ± 3.6% | 111 ± 18% |
| UUGUUCUACAUGUAAACCAAA | 69.2 ± 10% | 58.5 ± 4.4% | 23.4 ± 8% | 82.1 ± 13% |
| UGUACAAACAUGUAAACCAAA | 86.2 ± 14% | 75.9 ± 4.7% | 83.8 ± 4.9% | 83.4 ± 1.8% |
| UGUUCGCACAUGUAAACCAAA | 78.9 ± 2.5% | 57 ± 6.6% | 32.6 ± 6.9% | 84.6 ± 3% |
| UUUGCUUACAUGUAAACCAAA | 79.1 ± 15% | 80.6 ± 2.9% | 103 ± 7.8% | 88.3 ± 1.7% |
| UUUCGAAACAUGUAAACCAAA | 77.7 ± 12% | 101 ± 3.3% | 78 ± 5.2% | 103 ± 7.4% |
| UCAAAGGACAUGUAAACCAAA | 109 ± 12% | 79.8 ± 7.7% | 60.3 ± 7.5% | 89.4 ± 12% |
| UAGUCCUACAUGUAAACCAAA | 48.6 ± 9% | 11.8 ± 2.4% | 20.4 ± 2.8% | 24.8 ± 2.3% |
| UAGGGCAACAUGUAAACCAAA | 58.4 ± 4% | 36.9 ± 3.3% | 29.6 ± 10% | 74.5 ± 19% |
| UCGGCACACAUGUAAACCAAA | 40.2 ± 2.7% | 20.9 ± 1.6% | 23.5 ± 3% | 50.9 ± 6.6% |
| UUCCAUUACAUGUAAACCAAA | 69.7 ± 1.1% | 92.6 ± 7.9% | 91.3 ± 7% | 94.1 ± 29% |
| UACUUGUACAUGUAAACCAAA | 55.5 ± 11% | 44.4 ± 4.5% | 39 ± 9.6% | 4.6 ± 0.76% |
| UCACAUCACAUGUAAACCAAA | 17.1 ± 2% | 79.7 ± 4.7% | 40.7 ± 5.3% | 55.7 ± 11% |
| UACGUCAACAUGUAAACCAAA | 97.2 ± 2.9% | 79.6 ± 11% | 43 ± 7.3% | 81.1 ± 11% |
| UAAAGCAACAUGUAAACCAAA | 78.1 ± 9.6% | 95.7 ± 7.4% | 63.4 ± 9.4% | 110 ± 8.1% |
| UCUCACAACAUGUAAACCAAA | 16.3 ± 5.8% | 86.8 ± 6.6% | 69.5 ± 7.3% | 94.8 ± 19% |
| UGACUGCACAUGUAAACCAAA | 11.4 ± 0.87% | 6.86 ± 1.3% | 22.2 ± 0.61% | 15.1 ± 1% |
| UGAUCCAACAUGUAAACCAAA | 54.5 ± 4.5% | 80.1 ± 2.1% | 28.4 ± 4.1% | 61.9 ± 11% |
| UGUCAGUACAUGUAAACCAAA | 38 ± 3.1% | 57.9 ± 10% | 35 ± 3.8% | 34.6 ± 8.7% |
| UUAGGGUACAUGUAAACCAAA | 63.8 ± 4.3% | 57.4 ± 2.8% | 16.8 ± 4.8% | 66.9 ± 7.9% |

| Sequence | cell viability [1] | cell viability [2] | cell viability [3] | cell viability [4] |
| --- | --- | --- | --- | --- |
| UCCCUCAACAUGUAAACCAAA | 55.8 ± 12% | 85.4 ± 13% | 76.1 ± 15% | 103 ± 36% |
| UUUUGCUACAUGUAAACCAAA | 65.6 ± 11% | 65.7 ± 3.5% | 96 ± 9.7% | 71.9 ± 5.3% |
| UGAAACAACAUGUAAACCAAA | 64 ± 5.2% | 76.1 ± 3.5% | 68.7 ± 9.6% | 70.9 ± 12% |
| UGUAUGUACAUGUAAACCAAA | 66.2 ± 11% | 27 ± 2.6% | 21.2 ± 2.7% | 8.25 ± 3.2% |
| UCUAUAGACAUGUAAACCAAA | 70.4 ± 2.1% | 92.7 ± 13% | 70.8 ± 8.6% | 94.7 ± 11% |
| UAGGUGAACAUGUAAACCAAA | 67.3 ± 13% | 69.8 ± 3.3% | 39.3 ± 5.9% | 73.8 ± 3.7% |
| UGAUAGCACAUGUAAACCAAA | 29.24 ± 0.27% | 17.5 ± 2% | 15 ± 2.6% | 6.23 ± 1.3% |
| UCUCAGGACAUGUAAACCAAA | 41.6 ± 2.8% | 73.3 ± 3.6% | 55.7 ± 8% | 97.4 ± 15% |
| UGUCGAAACAUGUAAACCAAA | 63.3 ± 3.9% | 98.3 ± 8.2% | 49.7 ± 9.9% | 94.1 ± 25% |
| UCCAGCGACAUGUAAACCAAA | 68.1 ± 12% | 78.2 ± 6.3% | 65.2 ± 12% | 98.8 ± 26% |
| UUGAGAUACAUGUAAACCAAA | 71.2 ± 4.1% | 69.6 ± 1.6% | 15.1 ± 0.48% | 38.6 ± 4% |
| UCGCAGGACAUGUAAACCAAA | 52.5 ± 8% | 68.5 ± 7% | 29.9 ± 3.2% | 69.6 ± 12% |
| UGUCCUAACAUGUAAACCAAA | 75 ± 11% | 87.2 ± 6.8% | 51.5 ± 7.2% | 68.8 ± 16% |
| UGUUCGUACAUGUAAACCAAA | 81.4 ± 11% | 67 ± 8.2% | 66.8 ± 10% | 92.3 ± 7.3% |
| UCUAGCCACAUGUAAACCAAA | 20.3 ± 0.67% | 20.3 ± 3.3% | 28.9 ± 2.7% | 74.1 ± 16% |
| UGGUGCAACAUGUAAACCAAA | 24.3 ± 3.7% | 15.1 ± 0.48% | 13.2 ± 1.6% | 30.1 ± 9.3% |
| UGGAGGGACAUGUAAACCAAA | 14.9 ± 2.6% | 6.54 ± 0.59% | 4.25 ± 0.47% | 33 ± 4.7% |
| UUAGACGACAUGUAAACCAAA | 100 ± 14% | 105 ± 9.8% | 98.6 ± 21% | 108 ± 15% |
| UUGUAAAACAUGUAAACCAAA | 64.6 ± 5.7% | 87 ± 2.6% | 81.1 ± 18% | 99.1 ± 8.8% |
| UAAGUUAACAUGUAAACCAAA | 69.9 ± 7.3% | 84.7 ± 15% | 66.1 ± 12% | 86.6 ± 7.2% |

— the supplement of paper PMC6206098
